Source: US20190023807A1 (CRESCENDO BIOLOGICS, published 2019)

Assays:
[1] = target: human PSMA (prostate specific membrane antigen), full-length, expressed on cells (human, UniProt Q04609); test: cell-based or functional assay
[2] = target: cynomolgus PSMA, full-length, expressed on CHO cells (cynomolgus, UniProt A0A2K5VNZ0 1-750); test: cell-based or functional assay

Chain of UniProt Q04609 (Q04609 whole entry): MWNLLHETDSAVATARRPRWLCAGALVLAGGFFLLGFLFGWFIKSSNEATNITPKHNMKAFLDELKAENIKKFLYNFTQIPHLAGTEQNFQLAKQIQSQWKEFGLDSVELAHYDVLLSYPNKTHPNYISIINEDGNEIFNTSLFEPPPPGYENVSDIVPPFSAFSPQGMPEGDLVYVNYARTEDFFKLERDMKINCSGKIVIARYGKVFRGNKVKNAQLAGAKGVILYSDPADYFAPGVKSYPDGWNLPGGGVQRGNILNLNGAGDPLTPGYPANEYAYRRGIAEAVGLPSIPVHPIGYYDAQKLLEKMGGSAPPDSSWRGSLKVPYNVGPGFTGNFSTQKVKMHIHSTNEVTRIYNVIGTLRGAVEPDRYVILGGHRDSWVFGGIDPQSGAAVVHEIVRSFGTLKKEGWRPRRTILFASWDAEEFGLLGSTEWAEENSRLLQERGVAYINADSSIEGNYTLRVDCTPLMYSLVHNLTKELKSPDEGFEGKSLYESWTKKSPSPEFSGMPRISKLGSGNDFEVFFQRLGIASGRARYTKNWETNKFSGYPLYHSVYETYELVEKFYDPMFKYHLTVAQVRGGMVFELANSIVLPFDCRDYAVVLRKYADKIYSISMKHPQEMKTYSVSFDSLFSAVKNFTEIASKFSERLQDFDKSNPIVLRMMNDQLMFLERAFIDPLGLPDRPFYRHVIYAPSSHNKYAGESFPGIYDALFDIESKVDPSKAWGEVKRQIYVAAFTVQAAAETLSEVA

Binder	His-ZAP cell killing, human PSMA Average EC50 [1] [nM]	His-ZAP cell killing, cyno PSMA Average EC50 [2] [nM]
1.17-6GS-2.1 (bispecific antibody, not shown: small tags and cut ends) EVQLLESGGGLVQPGGSLRLSCAASGFSFSSYALSWVRQAPGKGLEWVSSIGENNDTTDYAD[sequence of about 20 residues omitted]MNSLRVEDTAVYYCVKDGVHWGQGTLVTVSSGGGGSGGGGSGGGGSGGGGSGGGGSGGGGSEVQLVESGGGVVQPGRSLRLSCAASGFSFSGYGMHWVRQAPGKGLEWVAYISYDGSNKYYADSVKGRFTISRDNSKNTLYLQMNSLRAEDTAVYYCAKDPAWGLRLGESSSYDFDIWGQGTMVTVSS	0.013	0.015
1.17-6GS-2.17 (bispecific antibody, not shown: small tags and cut ends) EVQLLESGGGLVQPGGSLRLSCAASGFSFSSYALSWVRQAPGKGLEWVSSIGENNDTTDYAD[sequence of about 20 residues omitted]MNSLRVEDTAVYYCVKDGVHWGQGTLVTVSSGGGGSGGGGSGGGGSGGGGSGGGGSGGGGSEVQLVESGGGVVQPGRSLRLSCAASGFSFSGYGMHWVRQAPGKGLEWVAYISYDASNKYYADNVKGRFTISRDNSKNTLYLQMNSLRAEDTAVYYCAKDPAWGLRLGESSSYDFDIWGQGTMVTVSS	0.014	0.01
1.17-6GS-2.22 (bispecific antibody, not shown: small tags and cut ends) EVQLLESGGGLVQPGGSLRLSCAASGFSFSSYALSWVRQAPGKGLEWVSSIGENNDTTDYAD[sequence of about 20 residues omitted]MNSLRVEDTAVYYCVKDGVHWGQGTLVTVSSGGGGSGGGGSGGGGSGGGGSGGGGSGGGGSEVQLVESGGGVVQPGRSLRLSCAASGFSFSGYGTHWVRQAPGKGLEWVAYISYDGSNKYYAAPVKGRFTISRDNSKNTLYLQMNSLRAEDTAVYYCAKDAAWGLRLGESSSYDFDIWGQGTMVTVSS	0.018	0.012
1.17-6GS-2.15 (bispecific antibody, not shown: small tags and cut ends) EVQLLESGGGLVQPGGSLRLSCAASGFSFSSYALSWVRQAPGKGLEWVSSIGENNDTTDYAD[sequence of about 20 residues omitted]MNSLRVEDTAVYYCVKDGVHWGQGTLVTVSSGGGGSGGGGSGGGGSGGGGSGGGGSGGGGSEVQLVESGGGVVQPGRSLRLSCAASGFSFSGYGLHWVRQAPGKGLEWVAYISYDKSNKYYADKVKGRFTISRDNSKNTLYLQMNSLRAEDTAVYYCAKDPAWGLRLGESSSYDFDIWGQGTMVTVSS		0.012
